# Results: the supplement of paper PMC4967469
# Key:
# Experiment in all cases: Viability of human cancer cell lines after 72 h of drug (GDSC screen)
# SN-38 = compound: CCc1c2c(nc3ccc(O)cc13)-c1cc3c(c(=O)n1C2)COC(=O)[C@]3(O)CC [SN-38]; details: top dose 0.05 µM; top dose inferred
# Description: (§1)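 Human cancer cell lines in 384-well plates, medium with 10% serum, drug for 72 h over a 256-fold dose range (nine 2-fold or five 4-fold steps up to the top dose). Adherent lines were fixed and stained with the nucleic acid dye Syto60, suspension lines read with resazurin; signal relative to control wells, capped at 0 and 100%. One two-parameter sigmoid per drug and line, fitted in a mixed model over all curves with the slope shared within a line.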
# Axitinib = compound: CNC(=O)c1ccccc1Sc1ccc2c(/C=C/c3ccccn3)n[nH]c2c1 [Axitinib]; details: top dose 2 µM
# Description: as §1
# Vorinostat = compound: O=C(CCCCCCC(=O)Nc1ccccc1)NO [Vorinostat]; details: top dose 10 µM
# Description: as §1
# Dabrafenib = compound: CC(C)(C)c1nc(-c2cccc(NS(=O)(=O)c3c(F)cccc3F)c2F)c(-c2ccnc(N)n2)s1 [Dabrafenib]; details: top dose 10 µM
# Description: as §1
# Methotrexate = compound: CN(Cc1cnc2nc(N)nc(N)c2n1)c1ccc(C(=O)N[C@@H](CCC(=O)O)C(=O)O)cc1 [Methotrexate]; details: top dose 0.2 µM
# Description: as §1
Cell Line,AUC (SN-38),IC50 (SN-38) [nM],AUC (Axitinib),IC50 (Axitinib) [nM],AUC (Vorinostat),IC50 (Vorinostat) [nM],AUC (Dabrafenib),IC50 (Dabrafenib) [nM],AUC (Methotrexate),IC50 (Methotrexate) [nM]
"A4-Fuk (B-cell lymphoma, suspension)",0.691,11,0.838,1430,0.521,713,0.975,> 10000,–,–
"A253 (head and neck, adherent)",0.591,5.51,0.968,> 2000,0.745,3070,0.988,> 10000,–,–
"A427 (non-small cell lung carcinoma, adherent)",0.826,30.6,–,–,0.565,944,0.926,> 10000,–,–
"AN3-CA (endometrium, adherent)",0.826,34.3,–,–,0.789,4880,0.917,> 10000,0.976,> 200
"AU565 (breast, adherent)",0.651,8.63,–,–,0.721,2870,–,–,0.734,63.6
"BT-20 (breast, adherent)",0.81,34.5,–,–,0.81,6850,0.981,> 10000,–,–
"C-33-A (cervix, adherent)",0.36,1.28,–,–,0.557,892,0.92,> 10000,0.972,> 200
"CAL-12T (non-small cell lung carcinoma, adherent)",0.931,> 50,0.945,> 2000,0.782,4710,0.904,> 10000,–,–
"Calu-3 (lung adenocarcinoma, adherent)",0.644,8.71,0.979,> 2000,0.8,6370,0.977,> 10000,–,–
"D-263MG (glioma, adherent)",0.649,8.83,–,–,0.776,4840,0.981,> 10000,0.971,> 200
"DAN-G (pancreas, adherent)",0.783,18.4,–,–,0.815,4650,–,–,0.913,> 200
"Daoy (medulloblastoma, adherent)",0.242,0.617,–,–,0.682,1910,0.985,> 10000,0.984,> 200
"GAK (melanoma, adherent)",0.854,36.4,–,–,0.802,4640,0.897,> 10000,0.983,> 200
"HCC1187 (breast, suspension)",0.851,35.5,–,–,0.251,126,0.98,> 10000,–,–
"HCC1954 (breast, adherent)",–,–,0.972,> 2000,0.915,> 10000,0.98,> 10000,–,–
"HOS (osteosarcoma, adherent)",0.406,1.81,–,–,0.726,2410,0.971,> 10000,0.989,> 200

Cell Line,AUC (SN-38),IC50 (SN-38) [nM],AUC (Axitinib),IC50 (Axitinib) [nM],AUC (Vorinostat),IC50 (Vorinostat) [nM],AUC (Dabrafenib),IC50 (Dabrafenib) [nM],AUC (Methotrexate),IC50 (Methotrexate) [nM]
"Hey (ovary, adherent)",0.57,4.79,–,–,0.589,1080,0.586,1060,0.978,> 200
"HuP-T4 (pancreas, adherent)",0.406,1.7,–,–,0.721,2770,–,–,0.982,> 200
"IGR-37 (melanoma, adherent)",0.591,5.42,–,–,0.5,625,0.033,< 39.1,0.989,> 200
"LS-411N (large intestine, adherent)",0.831,41.7,0.945,> 2000,0.738,3530,–,–,–,–
"MG-63 (osteosarcoma, adherent)",0.645,8.4,–,–,0.849,9440,–,–,0.821,141
"Mewo (melanoma, adherent)",0.802,30.4,–,–,0.783,5100,0.903,> 10000,0.965,> 200
"NCI-H526 (small cell lung carcinoma, suspension)",0.477,2.71,–,–,0.543,815,0.989,> 10000,0.567,18.9
"NCI-H2023 (lung adenocarcinoma, adherent)",0.765,22.8,–,–,0.791,5770,0.939,> 10000,0.756,84.4
"PA-TU-8988T (pancreas, adherent)",0.713,12.5,–,–,0.86,8410,0.915,> 10000,0.983,> 200
"PSN1 (pancreas, adherent)",0.683,9.22,–,–,0.725,2390,0.778,3400,0.95,> 200
"REH (B-cell leukaemia, suspension)",0.392,1.6,0.979,> 2000,–,–,0.941,> 10000,0.566,18.8
"RH-41 (rhabdomyosarcoma, adherent)",0.764,15.4,–,–,0.641,1430,0.991,> 10000,0.827,96.1
"ROS-50 (B-cell leukaemia, suspension)",0.857,> 50,0.983,> 2000,–,–,0.983,> 10000,0.979,> 200
"RPMI-7951 (melanoma, adherent)",0.664,8.79,–,–,0.787,4200,–,–,0.927,> 200
"RPMI-8402 (T-cell lymphoblastic leukaemia, suspension)",0.342,1.23,–,–,0.493,600,0.935,> 10000,0.37,5.83
"RT4 (bladder, adherent)",0.666,9.31,0.858,1780,–,–,0.916,> 10000,0.904,> 200

# Lines with a small IC50 respond at low doses; a fit beyond the top or the lowest dose is shown as a bound at that dose. AUC sums up the same curve from the lowest dose to the 256-fold higher top dose; values near 1 show little effect. For some assays here: Where the top dose is marked as inferred, it comes from the curve model; the source does not state it.
